Experimental data as given in patent US11236120B2, “Azithromycin derivatives with epithelial barrier enhancement properties” (EpiEndo Pharmaceuticals ehf, priority 2015, dated 2022).
Some entries share one result that the patent states for a list of compounds.

Key:
[1] = test system: VA10 cells; test: Trans-epithelial resistance of immortalized VA10 cells cultured at air-liquid interface (ALI); assay type: cell-based, human
[2] = test system: Mycobacterium avium complex (MAC); test: Assay 2: STC colorimetric microplate assay, comparison over the Mycobacteria studied; assay type: cell-based, M. avium and M. intracellulare
[3] = Mycobacterium avium S1002170205 and Mycobacterium intracellulare S1305150028 (tested up to 1000 μg/ml)
[4] = for each one of the Mycobacteria studied

Compound | MIC concentration relative to the MIC concentration of Azithromycin [2, 3] | MIC concentration relative to the MIC concentration of Azithromycin [2, 4] | ratio between the TER in the presence of test compound and the TER in the presence of media+diluent alone [1]
CC[C@H]1OC(=O)[C@H](C)[C@@H](OC(=O)N2CCOCC2)[C@H](C)[C@@H](O[C@@H]2O[C@H](C)C[C@H](N(C)C)[C@H]2OC(=O)c2ccccc2)[C@](C)(O)C[C@@H](C)CN(C)[C@H](C)[C@H]2OC(=O)O[C@@]21C [Example 3] | over 15 × | over 4 × | greater than 1.0
CC[C@H]1OC(=O)[C@H](C)[C@@H](O)[C@H](C)[C@@H](O[C@@H]2O[C@H](C)C[C@H](N(C)C(=O)CNC(=O)OCc3ccccc3)[C@H]2O)[C@](C)(O)C[C@@H](C)CN(C)[C@H](C)[C@@H](O)[C@]1(C)O [Example 27, Benzyl N-[2-[[(2S,3R,4S,6R)-2-[[(2R,3S,4R,5R,8R,10R,11R,12S,13S,14R)-2-ethyl-3,4,10,13-tetrahydroxy-3,5,6,8,10,12,14-heptamethyl-15-oxo-1-oxa-6-azacyclopentadec-11-yl]oxy]-3-hydroxy-6-methyl-tetrahydropyran-4-yl]-methyl-amino]-2-oxo-ethyl]carbamate] | over 15 × | over 4 × | 

More lines, main results first:

MIC concentration relative to the MIC concentration of Azithromycin [2, 3] | MIC concentration relative to the MIC concentration of Azithromycin [2, 4] | Compound | ratio between the TER in the presence of test compound and the TER in the presence of media+diluent alone [1]
over 15 × | over 4 × | CC[C@H]1OC(=O)[C@H](C)[C@@H](O)[C@H](C)[C@@H](O[C@@H]2O[C@H](C)C[C@H](N(C)C(=O)c3ccccc3)[C@H]2O)[C@](C)(O)C[C@@H](C)CN(C)[C@H](C)[C@@H](O)[C@]1(C)O [Example 7, N-[(2S,3R,4S,6R)-2-[[(2R,3S,4R,5R,8R,10R,11R,12S,13S,14R)-2-ethyl-3,4,10,13-tetrahydroxy-3,5,6,8,10,12,14-heptamethyl-15-oxo-1-oxa-6-azacyclopentadec-11-yl]oxy]-3-hydroxy-6-methyl-tetrahydropyran-4-yl]-N-methyl-benzamide] | greater than 1.0
over 15 × | over 4 × | CC[C@H]1OC(=O)[C@H](C)[C@@H](O)[C@H](C)[C@@H](O[C@@H]2O[C@H](C)C[C@H](N(C)C(=O)CCOc3ccccc3)[C@H]2O)[C@](C)(O)C[C@@H](C)CN(C)[C@H](C)[C@@H](O)[C@]1(C)O [Example 28, N-[(2S,3R,4S,6R)-2-[[(2R,3S,4R,5R,8R,10R,11R,12S,13S,14R)-2-ethyl-3,4,10,13-tetrahydroxy-3,5,6,8,10,12,14-heptamethyl-15-oxo-1-oxa-6-azacyclopentadec-11-yl]oxy]-3-hydroxy-6-methyl-tetrahydropyran-4-yl]-N-methyl-3-phenoxy-propanamide] | 
over 15 × | over 4 × | CC[C@H]1OC(=O)[C@H](C)[C@@H](O)[C@H](C)[C@@H](O[C@@H]2O[C@H](C)C[C@H](N(C)C)[C@H]2OC(=O)C(C)C)[C@](C)(O)C[C@@H](C)CN(C)[C@H](C)[C@@H](O)[C@]1(C)O [Example 31, [(2S,3R,4S,6R)-4-(dimethylamino)-2-[[(2R,3S,4R,5R,8R,10R,11R,12S,13S,14R)-2-ethyl-3,4,10,13-tetrahydroxy-3,5,6,8,10,12,14-heptamethyl-15-oxo-1-oxa-6-azacyclopentadec-11-yl]oxy]-6-methyl-tetrahydropyran-3-yl]2-methylpropanoate] | 
